In PubChem BioAssay AID1745853 (National Center for Advancing Translational Sciences (NCATS), 2022):
The list shows a part of the results. Further columns of the screen follow, without active or inactive calls.

Tests used:
Assay in all cases: Primary Screen for Target Class Profiling of Small Molecule Inhibitors of Methyltransferases
[1] = biological target: Glycine N-methyltransferase (Homo sapiens) (UniProt Q14749); settings: purified enzyme, MTase-Glo SAH luminescence; measured here: GNMT inhibition; at 40 µM; stronger effect = lower value
Method in brief: (§1)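 Each enzyme was reacted with SAM and its substrate, with compounds tested once at 40 uM; SAH formed was read by MTase-Glo luminescence.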

[2] = biological target: Guanidinoacetate N-methyltransferase (Homo sapiens) (UniProt Q14353); settings: purified enzyme, MTase-Glo SAH luminescence; measured here: GAMT inhibition; at 40 µM; stronger effect = lower value
Method in brief: as §1

[3] = biological target: Histamine N-methyltransferase (Homo sapiens) (UniProt P50135); settings: purified enzyme, MTase-Glo SAH luminescence; measured here: HNMT inhibition; at 40 µM; stronger effect = lower value
Method in brief: as §1

[4] = biological target: Nicotinamide N-methyltransferase (Homo sapiens) (UniProt P40261); settings: purified enzyme, MTase-Glo SAH luminescence; measured here: NNMT inhibition; at 40 µM; stronger effect = lower value
Method in brief: as §1

[5] = biological target: Phenylethanolamine N-methyltransferase (Homo sapiens) (UniProt P11086); settings: purified enzyme, MTase-Glo SAH luminescence; measured here: PNMT inhibition; at 40 µM; stronger effect = lower value
Method in brief: as §1
% is scaled to controls: 0 for no effect and ±100 for the full control effect.

Row | Compound | activity change, negative = inhibition [1] [%] | activity change, negative = inhibition [2] [%] | activity change, negative = inhibition [3] [%] | activity change, negative = inhibition [4] [%] | activity change, negative = inhibition [5] [%]
1 | CC1OC(=O)C[C@@H]2C(C(=O)O)=CO[C@@H](O[C@H]3O[C@H](CO)[C@@H](O)[C@H](O)[C@H]3O)[C@H]12 (stereo not given in full) | 1.81 | 3.93 | 10.1 | -7.86 | 6.06
2 | Cc1ccc(-c2nnc3n(Cc4ccccc4)c(=O)c4ccccc4n23)cc1 | -17.1 | 0.078 | -9.07 | -9.21 | -10.1
3 | O=C(NC1CCCCC1)c1ccc2c(=O)nc3c(-c4ccc(F)cc4)n[nH]n3c2c1 | 2.04 | 0 | -1.17 | 1.83 | -3.27
4 | COc1cc([C@@H](O[C@@H]2O[C@H](CO)[C@@H](O)[C@H](O)[C@H]2O)[C@@H]2CO[C@H](c3ccc(O)c(OC)c3)[C@H]2CO)ccc1O | -2.32 | -6.23 | 4.72 | -13.4 | -7.77
5 | O=C(CCc1nnc2n(Cc3ccc(Cl)cc3)c(=O)c3ccccc3n12)N1CCN(c2ccccc2)CC1 | -0.909 | 2.48 | 6.25 | -0.325 | 2.37
6 | CC(C)OCCCn1c(=O)c2ccccc2n2c(=O)n(Cc3ccccc3Cl)nc12 | -5.7 | 0.756 | 5.07 | -16.6 | -1.34
7 | O=C(NCCOc1ccccc1)[C@@H]1C[C@H](c2ccc(F)cc2)N([S+](=O)([O-])C2CC2)C1 | -8.93 | -5.94 | -2.49 | -14.2 | -7.26
8 | COc1ccc(CNC(=O)c2cc3n(n2)CC(C)(C(=O)NCc2ccc(C)cc2)N(C)C3=O)c(OC)c1 (stereo not given) | 6.28 | 0 | 8.88 | 1.63 | 6.02
9 | CC(O)c1cc2n(n1)CCN(S(=O)(=O)c1ccc3c(c1)NC(=O)CO3)C2 (stereo not given) | -3.96 | -7.17 | -2.46 | -9.91 | -5.49
10 | Cc1cc(NC(=O)Cn2c(=O)oc3cc(S(=O)(=O)N4CCCC4)ccc32)ccc1Br | 7.91 | 0 | 8.92 | -5.3 | -28.2
11 | CCCO[C@@H]1O[C@H](CO)[C@@H](O)[C@H](O)[C@H]1O[C@@H]1OC[C@@H](O)[C@H](O)[C@H]1O | 4.16 | 6.98 | -8.44 | -5.36 | -0.694
12 | CC(C)CCN1CCC2(CC1)COc1ccccc1C(=O)N2 | -4.99 | -6.81 | -1.95 | -8.89 | -10.3
13 | CC(C)CNC(=O)c1cc(-c2ccsc2)nc2c1cnn2C | -25.3 | -23.4 | -33.5 | -22.6 | -15
14 | CC(C)CCNC(=O)N1CCn2cccc2C1C (stereo not given) | 4.28 | 3.07 | 13.6 | 2.54 | 7.02
15 | COCCOCc1nc(C2CCN(C(=O)Nc3ccc(C(=O)OC)cc3)CC2)no1 | -5.13 | -5.8 | -5.45 | -8.04 | -24.4
16 | O=C(Nc1ccccc1)NC1CCCN(c2ccc3nnc(-c4ccccc4)n3n2)C1 (stereo not given) | -0.371 | 1.18 | 1.84 | -2.47 | 1.99
17 | Cc1nnc([C@@H]2CC(F)(F)CN2C(=O)c2cccc3[nH]ccc23)o1 | 0.544 | -1.81 | -1.6 | 1.43 | 2.3
18 | CO/N=C(/C(=O)N[C@@H]1C(=O)N2C(C(=O)O)=C(Cn3ccc(=N)n3CCO)CS[C@H]12)c1csc(N)n1 | 0.51 | 5.08 | 12.2 | -8.95 | 5.09
19 | O=C(CC[C@H]1NC(=O)c2ccccc2NC1=O)Nc1nnc(C2CC2)s1 | -6 | -8.89 | -2.16 | -14.6 | -7
20 | COCC1CCN(CC2(O)CCCN(Cc3cccc(F)c3F)C2=O)CC1 (stereo not given) | -1.42 | -2.74 | 2.33 | -9.38 | -2.24
21 | O=C(O)c1ccc(CN2CCC[C@H]2c2nc(-c3ccc(F)cn3)no2)cc1 | -14.6 | -7.54 | -10.2 | -9.97 | -6.97
22 | O=C(O)C(c1ccc2c(c1)OCCO2)N1CCCN(c2ncccn2)CC1 (stereo not given) | -0.92 | 1.15 | 1.78 | -2.6 | -1.06
23 | Cc1ccc(C(=O)N2CCCCCCNC(=O)[C@@H]3C[C@@H](c4nc(Cc5ccccc5)no4)C[C@@H]32)s1 | -2.48 | -6.52 | 0.753 | -10.2 | -3.63
24 | O=C(N[C@@H](Cc1ccccc1)C(=O)CCl)OCc1ccccc1 | -3.66 | 9.06 | 1.6 | -7.86 | 4.23
25 | CC1CCC2(OC1)OC1CC3C4CCC5C[C@@H](O[C@@H]6O[C@H](CO[C@@H]7OC[C@@H](O)[C@H](O)[C@H]7O)[C@H](O)[C@H](O)[C@H]6O)CC[C@]5(C)C4CC[C@]3(C)C1C2C (stereo not given in full) | -0.711 | 7.79 | 2.48 | -2.73 | 6.77
26 | O=C(c1ccc(Nc2nn3c(=O)c4ccccc4nc3s2)cc1)N1CCN(c2ccccn2)CC1 | -19.5 | 0 | -0.172 | -1.04 | 1.16
27 | COCCN1CC(C(=O)NCCOc2ccccc2)CCC1=O (stereo not given) | -3.61 | -5.53 | -0.431 | -7.73 | 13
28 | O=C(c1cn(C2CNC2)nn1)N1CCOCC1 | 1.05 | 0.048 | 0.157 | 4.73 | 4.67
29 | CN1CC[C@H]2CN(C(=O)C3(Cn4ccnc4)CC3)C[C@@]2(C(=O)O)C1 | -0.953 | -0.424 | 0.277 | -3.43 | -24
